PubChem BioAssay AID504332 (National Center for Advancing Translational Sciences (NCATS), 2011)
Hit rate of the full screen: of about 350,000 compounds, about 31,000 (8.9%) were called active. Inconclusive results, whose numbers are uncertain, are shown with a selection of clear calls. The call rests on the fitted dose curve; in most records, active means well fitted inhibition curve with a large enough effect; inconclusive means small, poorly fitted or top-dose-only effect; inactive means no such curve, though single readings can be large or run the other way. Potencies of inconclusive entries are doubtful fits and often do not repeat.

Biological target: Histone-lysine N-methyltransferase EHMT2 (Homo sapiens) (UniProt Q96KQ7)
Test: qHTS Assay for Inhibitors of Histone Lysine Methyltransferase G9a; further: nearly all actives have a fitted effect of over 75% in size
Conditions: G9a H3K9 monomethylation, AlphaScreen, 2 h; activity, negative = inhibition: at 59 µM (top of the series) unless noted
Text: Methylated lysines, on the N-terminal tails of histone proteins serve as epigenetic markers to recruit factors that can then modify local chromatin structure to lead to functional consequences. G9a and other members of the SUV39 family of the SET domain-containing superfamily of histone lysine methyltransferases (HMT) have been identified to specifically methylate Lys9 of histone H3 (H3K9). G9a catalyzes the mono- and di-methylation of H3K9 in mammalian euchromatic regions, where the resulting H3K9me2 is indicative of transcriptional repression. […] The inhibition of G9a will result in transcriptional activation and work synergistically with DNA methyltransferase and histone deacetylase inhibitors, to kill cancer cells. This qHTS assay for identification of G9a inhibitors is a chemiluminescence based AlphaScreen (PerkinElmer). Methylation of biotinylated-histone peptide is measured through specific antibody-based detection, in conjunction with streptavidin-coated donor and anti-IgG antibody-coated acceptor beads. The method is particularly well suited for detection of inhibitors acting by the desired histone peptide competitive mechanism and is applicable to testing other HMTs. Although AlphaScreen has significant advantages with its utility in a variety of epigenetic target assays, the primary screening data provided in this deposition should be used with caution due to the prevalence of screening artifacts. An AlphaScreen counterscreen is highly recommended to be run against any putative actives to eliminate non specific artifacts. Alternatively, one can use other AlphaScreen assays in PubChem to filter out promiscuous hits. Quinn et al. A chemiluminescence-based method for identification of histone lysine methyltransferase inhibitors. Mol Biosyst 6(5): 782-8. 2010. PMID: 20567762 [2] Baell,Holloway. New substructure filters for removal of pan assay interference compounds (PAINS) from screening libraries and for their exclusion in bioassays. J Med Chem. 53(7):2719-40. 2010. PMID: 20131845 NIH Molecular Libraries Probe Production Network [MLPCN] NIH Chemical Genomics Center [NCGC] Structural Genomics Consortium (SGC) NIH Grant: 5U54 MH084681-02
To each well of a 1,536w plate, 2ul of HMT enzyme (final 20nM) were added, using a nanoliter dispenser. The G9a- and GLP-inhibitor BIX-01294 (CID: 25150857) are used as an intraplate control, with a 16-point titration in duplicate. A Kalypsys pin-tool transferred 23nl of library compound solution in DMSO to each well. Following a 15 min incubation of enzyme with compounds at room temperature, 1ul mixture of b-H3K9 peptide substrate (final 500nM) and SAM cofactor (final 20uM) were added. Reactions were allowed to proceed at room temperature for 2 hours. Methylated b-H3K9 peptide product was detected with 0.5 ug/mL rabbit polyclonal anti-monomethyl histone H3K9 antibody (Abcam Inc., Cambridge, MA) and 20 ug/mL each streptavidin-coated donor and anti-rabbit IgG acceptor AlphaScreen beads. Antibody and beads were added in a 1ul dispense, for a final volume of 4ul, and plates were incubated, protected from the light, for 10 min at room temperature. Microplates were then read on an EnVision multilabel plate reader using the 1,536 plate HTS AlphaScreen aperture (excitation time 80 ms, measurement time 240 ms).
On the % scale 0 is the no-effect control and ±100 the full control effect; potency means the concentration at half of the fitted maximal effect; tags describe the fitted curve by direction and shape.

UniProt Q96KQ7, sequence (Q96KQ7 whole entry, looked up): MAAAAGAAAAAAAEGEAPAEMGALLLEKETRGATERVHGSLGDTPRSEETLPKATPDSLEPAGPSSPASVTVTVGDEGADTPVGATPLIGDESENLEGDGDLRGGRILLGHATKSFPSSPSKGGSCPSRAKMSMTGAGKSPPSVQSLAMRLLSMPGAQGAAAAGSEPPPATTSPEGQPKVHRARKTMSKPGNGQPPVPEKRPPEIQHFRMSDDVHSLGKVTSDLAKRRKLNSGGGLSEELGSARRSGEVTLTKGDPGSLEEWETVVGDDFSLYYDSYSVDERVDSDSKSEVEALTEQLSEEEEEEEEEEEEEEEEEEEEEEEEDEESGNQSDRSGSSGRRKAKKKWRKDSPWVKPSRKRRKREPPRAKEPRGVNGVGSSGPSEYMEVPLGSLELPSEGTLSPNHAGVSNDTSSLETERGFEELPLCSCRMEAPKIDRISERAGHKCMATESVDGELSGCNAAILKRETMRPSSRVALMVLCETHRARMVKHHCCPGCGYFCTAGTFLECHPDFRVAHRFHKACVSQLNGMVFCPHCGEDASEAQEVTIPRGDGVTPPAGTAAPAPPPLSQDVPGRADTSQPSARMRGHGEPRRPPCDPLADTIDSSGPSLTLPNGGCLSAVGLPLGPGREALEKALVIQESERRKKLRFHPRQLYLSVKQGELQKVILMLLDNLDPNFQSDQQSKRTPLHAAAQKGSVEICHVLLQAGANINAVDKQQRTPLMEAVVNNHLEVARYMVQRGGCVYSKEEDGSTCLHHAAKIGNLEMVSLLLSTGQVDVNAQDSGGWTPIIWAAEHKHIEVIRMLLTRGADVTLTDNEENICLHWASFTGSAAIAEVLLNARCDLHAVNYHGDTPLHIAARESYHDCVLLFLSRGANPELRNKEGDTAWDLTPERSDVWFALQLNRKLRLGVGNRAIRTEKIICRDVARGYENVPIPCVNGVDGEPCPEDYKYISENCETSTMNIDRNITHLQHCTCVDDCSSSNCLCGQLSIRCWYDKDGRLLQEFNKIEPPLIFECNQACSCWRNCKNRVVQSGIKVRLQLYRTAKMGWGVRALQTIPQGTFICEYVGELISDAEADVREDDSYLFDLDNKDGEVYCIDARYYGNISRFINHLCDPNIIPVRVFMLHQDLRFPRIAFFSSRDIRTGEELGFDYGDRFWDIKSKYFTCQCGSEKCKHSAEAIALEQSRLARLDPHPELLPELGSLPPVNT

Row | SMILES | activity, negative = inhibition | Potency
1 | C=CC(C1=CC(=O)C(OC)=CC1=O)c1ccccc1 (stereo not drawn) | inconclusive: -72.4% [inhibitor] [at 2.33 µM] | –
2 | O=C(CSc1nc2cccnc2n1Cc1ccccc1)NC1CCCCC1 | – | inconclusive: 22.4 µM [inhibitor, single point]
3 | O=C(COC(=O)/C=C/c1cccc(Cl)c1)Nc1ccc2[nH]c(=O)[nH]c2c1 | – | active: 31.6 µM
4 | N#Cc1ccsc1NC(=O)CSc1nnc(-c2ccccc2)o1 | – | inconclusive: 3.16 µM [inhibitor, partial curve, poor fit]
5 | O=C(O)c1cccc(CSc2nc(-c3ccccc3)cc(C(F)(F)F)n2)c1 | – | inactive
6 | CC(=O)Nc1sc(C)c(C)c1CN1CCN(S(=O)(=O)c2ccccc2)CC1 | – | inconclusive: 17.8 µM [inhibitor, partial curve]
7 | Cc1c(N(C(=O)c2cnccn2)C2(C(=O)NC3CCCC3)CCCCC2)c(=O)n(-c2ccccc2)n1C | – | inconclusive: 5.01 µM [inhibitor, single point]
8 | Cc1nc2nc(SCc3ccc([N+](=O)[O-])cc3)[nH]c2cc1Br | – | inactive
9 | O=C(Nc1cnccc1C(F)(F)F)NC1CCCCC1 | – | inactive
10 | NS(=O)(=O)c1cccc(NC(=O)c2cccs2)c1 | inactive: 3.46% [at 12.7 µM] | –
11 | COc1cccc(C(=O)NCC(c2ccco2)N2CCc3ccccc3C2)c1 (stereo not drawn) | – | inconclusive: 79.4 µM [inhibitor, partial curve, poor fit]
12 | CCc1ccc(C(O)(c2ccccc2OC)C(CN2CCOCC2)c2ccccc2)cc1 (stereo not drawn) | – | active: 44.7 µM
13 | CN(C)c1ccc(/C=N/NC(=S)NCc2ccccc2)cc1 | – | inconclusive: 35.5 µM [inhibitor, full curve, poor fit]
14 | COc1ccc(OC)c2c1nc1n2CCS1 | – | active: 1.78 µM
15 | CN(C)/C(CN1CCN(C=O)CC1)=C1\N=C(c2ccccc2)OC1=O | – | inconclusive: 89.1 µM [inhibitor, single point]
16 | CCCn1c(N2CCN(Cc3ccc(Cl)cc3)CC2)nc2ccccc21 | – | inconclusive: 56.2 µM [inhibitor, partial curve]
17 | Cc1ccccc1-c1nc(S(=O)(=O)c2ccc(Cl)cc2)c(NCCN2CCOCC2)o1 | inconclusive: -53.5% [inhibitor] | –
18 | C/C(=N\NC(=O)c1ccccc1F)c1ccccn1 | – | inactive
19 | O=C1CCCN1CC(CN1CCOCC1)Sc1nnnn1-c1ccccc1 (stereo not drawn) | – | inconclusive: 44.7 µM [inhibitor, partial curve, poor fit]
20 | CCCc1cc(=O)oc2c(CNc3ccc(OCC)cc3)c(O)ccc12 | – | active: 39.8 µM
21 | COC(=O)C(NC(=O)c1ccccc1Cl)(Nc1ncc(S(=O)(=O)c2ccc([N+](=O)[O-])cc2)s1)C(F)(F)F (stereo not drawn) | – | inconclusive: 25.1 µM [inhibitor, single point]
22 | CCc1cccc(NC(=O)c2sc3nc4n(c(=O)c3c2C)CCC4)c1 | – | inactive

Row | SMILES | activity, negative = inhibition | Potency
23 | CCOC(=O)C1CCCN(S(=O)(=O)c2cc3c4c(c2)CCN4C(=O)CC3)C1 (stereo not drawn) | – | inconclusive: 10 µM [inhibitor, partial curve, poor fit]
24 | O=C(NC(Cc1ccccc1)C(=O)O)/C(=C\c1ccccc1F)NC(=O)c1ccccc1 (stereo not drawn) | – | inconclusive: 31.6 µM [inhibitor, partial curve, poor fit]
25 | O=C(Nc1ccccc1N1CCOCC1)c1cccc(NS(=O)(=O)c2ccc(F)c(F)c2)c1 | – | inconclusive: 89.1 µM [inhibitor, partial curve, poor fit]
26 | Cc1cc(NS(=O)(=O)c2ccc(NC(=S)NC(=O)c3ccccc3)cc2)no1 | – | inconclusive: 17.8 µM [inhibitor, single point]
27 | COc1ccc(NS(=O)(=O)c2cccc(C(=O)N/N=C/c3ccc4c(c3)OCCO4)c2)cc1 | – | inactive
28 | C=CCOc1ccccc1/C=c1\sc2nc(=O)c(C)nn2c1=O | – | inconclusive: 35.5 µM [inhibitor, single point]
29 | COc1ccc(C(=O)Nc2nc(C)cc(C)n2)cc1 | – | inconclusive: 50.1 µM [inhibitor, partial curve]
30 | COc1ccc(O)c(CN2CCCC(C(=O)Nc3cccc(-n4cccn4)c3)C2)c1 (stereo not drawn) | – | inconclusive: 79.4 µM [inhibitor, single point]
31 | CCOC(=O)Cn1cc(/C=C(/C#N)C(=O)NC(C)C)c2ccccc21 | – | inconclusive: 0.501 µM [inhibitor, partial curve, poor fit]
32 | CCc1ccc(-c2ccc(C(=O)O)cc2)nc1 | – | inactive
33 | COCCN1CCN(C(=O)C2CCC(=O)N(CCc3ccc(Cl)cc3)C2)CC1 (stereo not drawn) | – | inconclusive: 79.4 µM [inhibitor, single point]
34 | CC1CCCCN1C(=O)CSc1nnc(-c2ccccc2O)o1 (stereo not drawn) | – | inconclusive: 0.282 µM [inhibitor, partial curve, poor fit]
35 | CCCOC(=O)c1c(NC(=O)c2cc3nc(-c4ccc(OC)cc4)cc(C(F)(F)F)n3n2)sc2c1CCCC2 | – | inconclusive: 0.1 µM [inhibitor, full curve, poor fit]
36 | O=C(O)COCC(=O)NCc1csc2ccc(Cl)cc12 | – | inconclusive: 89.1 µM [inhibitor, single point]
37 | O=Cc1c(N2CCN(c3cccc(Cl)c3)CC2)nc2ccccn2c1=O | – | inconclusive: 25.1 µM [inhibitor, single point]
38 | CNS(=O)(=O)c1ccc2c(c1)NC(=O)C1CCCN21 (stereo not drawn) | – | inconclusive: 8.91 µM [inhibitor, partial curve, poor fit]
39 | CN(CC(=O)NCc1ccc(F)cc1)Cc1ccc(Br)cc1 | – | inactive
40 | O=C(c1cc2nc(-c3ccco3)cc(C(F)(F)F)n2n1)N1CCCCCC1 | – | inconclusive: 31.6 µM [inhibitor, single point]
41 | CC(C)CCNC(=O)NC(=O)CSc1ccc(S(=O)(=O)N2CCOCC2)cn1 | – | active: 1.58 µM
42 | Cc1ccc[n+](CC(=O)Nc2cc(C(F)(F)F)ccc2N2CCOCC2)c1 | – | inconclusive: 44.7 µM [inhibitor, partial curve, poor fit]
43 | Cc1cccc(-c2nnn(CC/C(N)=N/O)n2)c1 | – | inconclusive: 39.8 µM [inhibitor, partial curve]
